Assay results as given in PMC6639320.
These are yes or no findings as the source states them, for the method shown. Binding seen in cells or lysates may run through a third protein. Some results given as binding are weak or reduced against the parent protein; the word gives no strength. For some assays here: Tags and fused reporters may be left off the sequences shown. Each block holds one molecule with its values, some of them ahead of it.

Chains of the proteins cited; added tags and fusions are not shown.
UniProt Q7Z5R6: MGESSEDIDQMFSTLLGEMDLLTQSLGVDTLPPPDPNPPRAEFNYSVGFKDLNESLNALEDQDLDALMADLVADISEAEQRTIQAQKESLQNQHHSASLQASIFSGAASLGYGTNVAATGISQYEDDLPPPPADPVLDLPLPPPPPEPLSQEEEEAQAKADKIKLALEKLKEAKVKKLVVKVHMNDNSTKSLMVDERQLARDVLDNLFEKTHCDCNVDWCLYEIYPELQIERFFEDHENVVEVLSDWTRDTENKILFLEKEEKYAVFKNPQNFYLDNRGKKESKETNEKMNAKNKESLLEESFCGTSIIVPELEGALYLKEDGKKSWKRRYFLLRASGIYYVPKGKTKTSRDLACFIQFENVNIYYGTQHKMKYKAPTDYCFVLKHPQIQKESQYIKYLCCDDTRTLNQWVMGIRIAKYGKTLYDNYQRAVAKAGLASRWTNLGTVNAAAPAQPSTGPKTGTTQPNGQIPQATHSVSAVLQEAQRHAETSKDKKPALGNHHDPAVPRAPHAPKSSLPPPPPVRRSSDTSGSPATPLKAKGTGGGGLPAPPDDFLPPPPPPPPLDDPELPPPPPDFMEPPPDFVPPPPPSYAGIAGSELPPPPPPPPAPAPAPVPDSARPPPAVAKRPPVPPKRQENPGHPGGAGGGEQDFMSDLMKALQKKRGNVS

Key:
[1] = target: T1, GST-SKAP1-N (N-SKAP1; residues 1-104) (human) (UniProt Q86WV1); experiment: pull-down; GST fusion proteins of regions of SKAP1 used to co-precipitate endogenous PLK1 from lysates of Hela cells; only the target purified
T1 sequence: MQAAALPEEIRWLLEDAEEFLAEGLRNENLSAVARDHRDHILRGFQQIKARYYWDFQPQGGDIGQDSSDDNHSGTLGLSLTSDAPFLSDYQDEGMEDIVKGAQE

[2] = target: T2, GST-SKAP1-SK (SK region; residues 209-285) (human) (UniProt Q86WV1); experiment: as above
T2 sequence: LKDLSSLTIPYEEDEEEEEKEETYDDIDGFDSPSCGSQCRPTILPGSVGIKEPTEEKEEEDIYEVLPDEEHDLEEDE

[3] = target: T3, GST-SKAP1-SH3 (human) (UniProt Q86WV1); experiment: as above
T3 sequence: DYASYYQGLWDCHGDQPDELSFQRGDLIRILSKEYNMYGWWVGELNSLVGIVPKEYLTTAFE

[4] = target: T4, SKAP1 (endogenous, Jurkat T-cells) (human (endogenous in Jurkat)) (UniProt Q86WV1); experiment: co-IP; endogenous proteins from Jurkat T-cells, Triton X-100 lysate, anti-SKAP1 or anti-PLK1 with protein G-Sepharose, blotting; also anti-SKAP1 precipitation 0-8 hours after release from 150 nM nocodazole (16 hours)
T4 sequence: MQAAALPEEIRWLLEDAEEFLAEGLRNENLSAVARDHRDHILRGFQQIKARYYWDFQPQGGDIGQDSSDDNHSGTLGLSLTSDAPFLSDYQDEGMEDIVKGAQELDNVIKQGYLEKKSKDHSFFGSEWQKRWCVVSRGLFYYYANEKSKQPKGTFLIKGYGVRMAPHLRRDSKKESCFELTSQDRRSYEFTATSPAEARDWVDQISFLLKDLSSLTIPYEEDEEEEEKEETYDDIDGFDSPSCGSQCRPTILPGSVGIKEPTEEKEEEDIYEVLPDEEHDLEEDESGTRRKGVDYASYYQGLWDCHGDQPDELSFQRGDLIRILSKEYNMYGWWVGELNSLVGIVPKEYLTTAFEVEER

[5] = target: T4, SKAP1 (endogenous, Jurkat T-cells) (human (endogenous in Jurkat)); experiment: proximity ligation; Duolink in situ PLA with anti-PLK1 and anti-SKAP1 on endogenous proteins in Jurkat cells
[6] = target: Myc-tagged PLK1 (UniProt P53350); experiment: co-IP; Hela cells co-transfected with FLAG-tagged PLK1, RIAM, LAT or SKAP1 and Myc-tagged PLK1; anti-Myc precipitation, blotting
[7] = target: T5, GST-SKAP1 WT (full-length) (human) (UniProt Q86WV1); experiment: pull-down; GST full-length SKAP1 WT and S31A used to co-precipitate Flag-PLK1 expressed in 293T cells; only the target purified
T5 sequence: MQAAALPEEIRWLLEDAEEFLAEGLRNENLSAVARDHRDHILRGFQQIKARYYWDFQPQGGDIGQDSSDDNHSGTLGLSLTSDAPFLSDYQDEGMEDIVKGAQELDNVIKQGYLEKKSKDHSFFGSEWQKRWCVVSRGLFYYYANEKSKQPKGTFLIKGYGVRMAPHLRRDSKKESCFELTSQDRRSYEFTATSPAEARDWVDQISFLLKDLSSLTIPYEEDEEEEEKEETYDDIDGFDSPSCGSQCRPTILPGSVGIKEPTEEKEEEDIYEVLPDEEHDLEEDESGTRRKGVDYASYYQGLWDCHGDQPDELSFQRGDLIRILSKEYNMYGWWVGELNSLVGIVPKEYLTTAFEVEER

[8] = target: T6, GFP-tagged SKAP1 (human) (UniProt Q86WV1); experiment: co-IP; 293T cells co-expressing Flag-tagged PLK1, NKD or PBD with GFP-SKAP1; anti-SKAP1 precipitation and, for PBD, anti-Flag precipitation; blotting
T6 sequence: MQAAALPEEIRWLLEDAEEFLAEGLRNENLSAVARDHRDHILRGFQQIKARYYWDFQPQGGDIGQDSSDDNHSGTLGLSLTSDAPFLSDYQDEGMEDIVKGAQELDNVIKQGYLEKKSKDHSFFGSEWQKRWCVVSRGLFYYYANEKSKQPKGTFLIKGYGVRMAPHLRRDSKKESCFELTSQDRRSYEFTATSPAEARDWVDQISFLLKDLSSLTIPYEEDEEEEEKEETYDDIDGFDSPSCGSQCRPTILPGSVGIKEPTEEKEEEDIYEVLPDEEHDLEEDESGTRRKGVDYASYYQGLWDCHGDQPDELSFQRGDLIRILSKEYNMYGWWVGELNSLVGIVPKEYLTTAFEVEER

[9] = target: Polo-like kinase 1 (PLK1) (endogenous, Jurkat T-cells) (human (endogenous in Jurkat)) (UniProt P53350); experiment: co-IP; endogenous proteins from Jurkat T-cells, Triton X-100 lysate, anti-SKAP1 or anti-PLK1 with protein G-Sepharose, blotting; also anti-SKAP1 precipitation 0-8 hours after release from 150 nM nocodazole (16 hours)

Molecule: Polo-like kinase 1 (PLK1) (endogenous, Jurkat T-cells) (from UniProt P53350 1-603) (enzyme)
binding [4]: binds
binding [5]: binds

Molecule: RIAM tagged with FLAG (from UniProt Q7Z5R6 1-666)
binding [6]: no binding

Molecule: Flag-tagged PLK1 WT (from UniProt P53350 1-603) (enzyme)
binding [7]: binds
binding [8]: binds

B1: SKAP1 (endogenous, Jurkat T-cells) (protein, UniProt Q86WV1 1-359)
chain: MQAAALPEEIRWLLEDAEEFLAEGLRNENLSAVARDHRDHILRGFQQIKARYYWDFQPQGGDIGQDSSDDNHSGTLGLSLTSDAPFLSDYQDEGMEDIVKGAQELDNVIKQGYLEKKSKDHSFFGSEWQKRWCVVSRGLFYYYANEKSKQPKGTFLIKGYGVRMAPHLRRDSKKESCFELTSQDRRSYEFTATSPAEARDWVDQISFLLKDLSSLTIPYEEDEEEEEKEETYDDIDGFDSPSCGSQCRPTILPGSVGIKEPTEEKEEEDIYEVLPDEEHDLEEDESGTRRKGVDYASYYQGLWDCHGDQPDELSFQRGDLIRILSKEYNMYGWWVGELNSLVGIVPKEYLTTAFEVEER
binding [9]: binds

Next, values leading:

binding [1]: binds
binding [2]: no binding
binding [3]: no binding
Molecule: Polo-like kinase 1 (PLK1) (endogenous, Hela lysate) (from UniProt P53350 1-603) (enzyme)

binding [6]: binds
B2: SKAP1 tagged with FLAG (protein, UniProt Q86WV1 1-359)
chain: MQAAALPEEIRWLLEDAEEFLAEGLRNENLSAVARDHRDHILRGFQQIKARYYWDFQPQGGDIGQDSSDDNHSGTLGLSLTSDAPFLSDYQDEGMEDIVKGAQELDNVIKQGYLEKKSKDHSFFGSEWQKRWCVVSRGLFYYYANEKSKQPKGTFLIKGYGVRMAPHLRRDSKKESCFELTSQDRRSYEFTATSPAEARDWVDQISFLLKDLSSLTIPYEEDEEEEEKEETYDDIDGFDSPSCGSQCRPTILPGSVGIKEPTEEKEEEDIYEVLPDEEHDLEEDESGTRRKGVDYASYYQGLWDCHGDQPDELSFQRGDLIRILSKEYNMYGWWVGELNSLVGIVPKEYLTTAFEVEER

binding [6]: no binding
B3: LAT tagged with FLAG (protein, UniProt O43561 1-262)
chain: MEEAILVPCVLGLLLLPILAMLMALCVHCHRLPGSYDSTSSDSLYPRGIQFKRPHTVAPWPPAYPPVTSYPPLSQPDLLPIPRSPQPLGGSHRTPSSRRDSDGANSVASYENEGASGIRGAQAGWGVWGPSWTRLTPVSLPPEPACEDADEDEDDYHNPGYLVVLPDSTPATSTAAPSAPALSTPGIRDSAFSMESIDDYVNVPESGESAEASLDGSREYVNVSQELHPGAAKTEPAALSSQEAEEVEEEGAPDYENLQELN
